Some of the results follow.

This assay relates to PfSIP2 AP2 domain 1 (GST-tagged). Kind of assay: gcPBM binding intensity (ln(normalized median fluorescence intensity)); higher = stronger DNA binding. In outline: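 The binding buffer was 1× PBS containing 1% milk, 0.2 mg/ml BSA, 0.5% salmon testes DNA and 0.03% Triton X-100. In it, GST-tagged P. falciparum DNA-binding domains expressed in E. coli were applied for 1 h to an Agilent 4 × 180k array of primer-extended double-stranded 36-bp intergenic genomic probes plus negative controls. Binding intensity, read with Alexa488 anti-GST antibody and a 488 nm scan, is the highest Masliner-normalised natural-log median intensity across replicate spots of either probe orientation.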
Turning to “TTATATAAATTATTTACACACAAACATTTATACTTT [CACACA_site3449]”, the “gcPBM binding intensity (ln)” value was determined as 7.07.
To “TTTCTAATTTATATCACACACATATTTATATAGTAA [CACACA_site6813]” belongs 6.95; to “GGCGTATGTGTATATACACACCCACGTATATAAATA [CACACA_site7489]”, 7.08; to “TATTCCCTTCTTCCTTCTGTTTTTGATATTAAAGGG [GTGCAC_negctrl_site270]”, 6.83.
Take “ATACTTTATTCGTTAGCACACAATTCAAGTTGATTC [CACACA_site1123]”: the “gcPBM binding intensity (ln)” value is 6.92.
To “AAGATACCCCAAAATTGTACATATTAAAATAATAAA [XGTACX_site3603]” belongs 7.09.
To “AAAAAAAAAAATAAATAAATAAATAAATATATATAT [TGCATGCA_negctrl_site468]” belongs 8.33; to “TATATATACATATACACACATACGTACATACATATA [CACACA_site3585]”, 7.42.
On to “TACATACATATATATACACACATATATAATATATAT [CACACA_site388]”, for which the “gcPBM binding intensity (ln)” value amounted to 7.4.
“ATATTCATATATACTTCACACACATTTTATCATTCA [CACACA_site8784]”: the “gcPBM binding intensity (ln)” value was found to be 6.92.
With “ATGAAAGTAAGACATGCATGGAATTTTTTTTATTAG [TGCATGCA_site348]”, the “gcPBM binding intensity (ln)” value turned out to be 6.61.
To “GGAATATTTTATGAGTGTACATTTTTTTTTTTTTTT [XGTACX_site2370]” belongs 7.31; to “TTTCTTTTTTTTTTTTTTTCTTTTTTTTTTTTTTTC [CACACA_negctrl_site1025]”, 6.74.
With ATAATCCAACTTTGAGTGCGTGGTGTTTTTTTTTTC, the “gcPBM binding intensity (ln)” value is 7.08.
On to “AAGTAAAATAAGTATACACACATAAATATATATATA [CACACA_site685]”, for which the “gcPBM binding intensity (ln)” value came out at 8.74.
With “TATAATAATACGTATTGTACTATTAGGTTAATTCGT [XGTACX_site264]”, the “gcPBM binding intensity (ln)” value came out at 6.96.
To “TTTTCTTGTAAATTACGTACGAATGTGTAGAGAAAT [XGTACX_site1339]” belongs 7.65; to “TCTATAAAGGAATATACACACATATATATATATATA [CACACA_site410]”, 9.57.
To “ACTTGTAAGAAACACACACACACACCCATATATATA [CACACA_site796]” belongs 7.69.
To “ATCCTCTTTACAATATGTACATAAATATATATTTAT [XGTACX_site8001]” belongs 7.58.
Turning to “TATATATATAAATACACACACATATATATATATATA [CACACA_site4867]”, the “gcPBM binding intensity (ln)” value stood at 9.67.
As to “TATTTATTTATTTATTTATTTATTTATTTATATTTA [CACACA_negctrl_site398]”, the “gcPBM binding intensity (ln)” value is 7.21.
To “TATATATTTTTATTATGTACATATTAACAATGTGTT [XGTACX_site879]” belongs 7.18; to “TAAAATATAAAACACACACACATATATATATATATT [CACACA_site224]”, 7.38.
To “TTTGAGATAAAAGACTGTACTTAGAATGTATAAAAA [XGTACX_site203]” belongs 6.88; to “AAAAAAAAAAAAAACTGTACCAAAAAGAATATATAC [XGTACX_site8345]”, 7.15; to “TTTAATTTTATATAGAGTACAAAAAAATAGAAAGAT [XGTACX_site3870]”, 7.88.
To “ATATATATATATATATGTACATAAATATTTTAAAAT [XGTACX_site4980]” belongs 9.67; to “TACTCCTTAAATATATGTAAAGGAAGAAAAAAAAAA [XGTACX_negctrl_site306]”, 6.83; to “TTGTTTCTACAATTTAATAAAATACGTTTTCAAAAA [XGTACX_negctrl_site377]”, 6.74.
Regarding “ACAATAAAAATAAAAAGTACAAATAAAAAAAATAAA [XGTACX_site6718]”, the “gcPBM binding intensity (ln)” value came out at 7.15.
To “AATATATGTTTAATTTCACACACAAATATACATTTT [CACACA_site9385]” belongs 7.04; to “ATATATATATATATATGTACACATATACGCTTTTTC [XGTACX_site3838]”, 9.62; to “AACAAATTTATCCAAAGTACAAAATATCATTTCTTA [XGTACX_site4543]”, 6.76.
To “AACAACATGTAGACGCGTACCAACATCAGATCCTAT [XGTACX_site4071]” belongs 6.99; to “ATTATAATTATATATGCATGTAGCATTTTCTATTTT [TGCATGCA_site66]”, 6.66; to “ATTTTATATAATACATGTACAAAAGTTTAAATTTAT [XGTACX_site6196]”, 7.13.
To “TATAAATACTAAAAAAGTACAAAATTTCATAAAAAA [XGTACX_site2709]” belongs 6.93; to “TTATAATATAGCAATTATTAAATAGGATCAAATGAA [CACACA_negctrl_site632]”, 6.77; to “TTCTTTATTTATCATTATAAGAAGAGTTGATTTGTT [XGTACX_negctrl_site555]”, 6.91.
“TATTTGTAAATTATTTGGGTGTGTAGGGGATATTCT [XGTACX_negctrl_site204]”: the “gcPBM binding intensity (ln)” value is 6.97.
On to “CGTTCATATTATTATAGTACATATTATTATAGTTTT [XGTACX_site1550]”, for which the “gcPBM binding intensity (ln)” value was 7.12.
To “TTTTTTTTTTTATTTGCATGCGGTGTTCATAATATT [TGCATGCA_site199]” belongs 6.88; to “TTGGTGGATAAATTTACACACAATAACTTTCGTTCA [CACACA_site6358]”, 6.75; to “AGAAGAAAAGTAAAAAGTACATTATTCATGGCCTAT [XGTACX_site5601]”, 6.63.
Turning to “ATATAAGAAATAAAGAAAAATGTGTTTTTTTTTTTT [XGTACX_negctrl_site396]”, the “gcPBM binding intensity (ln)” value worked out at 6.6.
To “AGAGCTGTTTTTTATGCATGTAGTTTAGAAAATACA [TGCATGCA_site257]” belongs 6.79.
To “TTTATCTTATTTTTATGTACTTATTTTATAAAAAAA [XGTACX_site7730]” belongs 7.67; to “TTTTTCCTAACATATTATATACTTGAATATTTATTA [CACACA_negctrl_site156]”, 6.85; to “AAACAAATATTTATCACAATGTCATTTTGTTAACAT [GTGCAC_negctrl_site171]”, 6.92.
To “CTTTGTAGTATATTAACACACAACTGTTTATAATAT [CACACA_site6038]” belongs 7.05.
Consider “TTCTTTAAAAAATTCGATAAAAAAAAAAAAAGAAAA [CACACA_negctrl_site242]”, for which the “gcPBM binding intensity (ln)” value stood at 6.8.
To “TATATACTCATGCGCACACACAAGTGGGAAATTTGG [CACACA_site5056]” belongs 7.42; to “ATATACATATATATTGCATGCAGAGAGTATTTATAA [TGCATGCA_site646]”, 6.94.
To ATATATATATATATTGTGCACAAAAAAAAATAAGCA belongs 9.29.
To “ATATATTATAGGTACACACACATATAAGGGATTATA [CACACA_site6154]” belongs 7.22.

Values taken from the supplement of paper PMC11417369.
